Reference: PubChem BioAssay AID485344 (National Center for Advancing Translational Sciences (NCATS), 2010)
The campaign covered roughly 340,000 compounds. About 6,900 (2%) were called active. Rule as the data show it: active = inhibition above about 30%; inactive = below that, where a call was filed. The list shows a part of the results, in another mix than the full data. The source gives no active or inactive call for entries shown without one.

Each molecule was assayed against D(2) dopamine receptor (Homo sapiens) (UniProt P14416) (assay: HTS Assay for Allosteric Antagonists of the Human D2 Dopamine Receptor: Primary Screen for Antagonists). Settings: HEK293 TREx D2 cells, calcium flux, dopamine EC80; at 10 µM; stronger effect = higher value.
Procedure, shortened: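 Tetracycline-induced HEK293 TREx cells expressing D2 receptor forced-coupled to calcium signalling, loaded with no-wash calcium dye. Compounds added and calcium flux read 180 s, then dopamine added at EC80 and read a further 180 s.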
Also: 0% is about no effect.

UniProt P14416, sequence (P14416 whole entry, looked up): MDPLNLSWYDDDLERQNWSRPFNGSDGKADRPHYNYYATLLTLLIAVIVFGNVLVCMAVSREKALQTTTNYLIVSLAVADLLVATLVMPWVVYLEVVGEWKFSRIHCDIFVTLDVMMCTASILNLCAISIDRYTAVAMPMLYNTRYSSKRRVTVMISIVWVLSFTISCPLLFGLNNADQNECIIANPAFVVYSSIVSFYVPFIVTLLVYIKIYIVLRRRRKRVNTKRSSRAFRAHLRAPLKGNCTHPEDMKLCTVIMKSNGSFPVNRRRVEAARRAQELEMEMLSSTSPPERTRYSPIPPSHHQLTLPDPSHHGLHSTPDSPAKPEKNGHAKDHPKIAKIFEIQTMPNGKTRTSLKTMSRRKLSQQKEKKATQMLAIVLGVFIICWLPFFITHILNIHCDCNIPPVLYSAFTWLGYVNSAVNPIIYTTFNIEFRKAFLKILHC

| SMILES | inhibition |
| --- | --- |
| COC(=O)Cn1c(=O)c2cccn2c2ccc(F)cc21 | -5.2% |
| COc1cc(NC(=O)c2cc(C3CC3)nc3c2c(C)nn3-c2ccccc2)cc(OC)c1 | -6.59% |
| CCCCCn1c(NCc2ccc(OC)cc2)nc2ccccc21 | -0.0366% |
| O=C(NC1CCCC1)c1cc(-c2ccc(Cl)cc2Cl)on1 | active: 30.8% |
| Cc1ccc(C(=O)c2cn(CC(=O)Nc3ccc(C(C)C)cc3)c3nc(C)ccc3c2=O)cc1 | 5.04% |
| Cc1ccc(NC(=O)CSc2nnc(-c3ccc([N+](=O)[O-])cc3)o2)c(C)c1 | -11.1% |
| O=C(COC(=O)C1=NN(c2ccccc2)C(=O)CC1)NCc1ccccc1Cl | active: 31.5% |
| COc1cccc(NC(=O)Cn2nnc(C(=O)NCc3cccs3)c2N)c1 | 14.8% |
| COc1ccc(NC(=O)Cn2c(=O)n(-c3cc(C)cc(C)c3)c(=O)c3oc4ccccc4c32)cc1OC | 9.51% |
| Cc1ccc2c(CNCCc3ccccc3)c(C(=O)O)n(Cc3ccccc3C)c2c1 | 5.45% |
| O=C(NCCc1ccccc1)c1nn(-c2ccccc2F)nc1CO | -5.19% |
| COCc1ccc(CN2CCC(C(=O)Nc3cccc(-c4cscn4)c3)CC2)o1 | active: 31.9% |
| CCCSC1=C(C#N)C(c2ccc(OC)cc2)C2=C(CC(C)(C)CC2=O)N1 (stereo not given) | active: 41.7% |
| CCOc1ccccc1NC(=O)c1c(NC(=O)COc2ccc(Cl)cc2)sc2c1CCCCC2 | 8.91% |
| CS(=O)(=O)N1CCc2cc(C(=O)N3CCN(c4cccc(Cl)c4)CC3)ccc21 | -12.2% |
| Cc1ccc(C)c(N2CCN(C(=O)c3cn(CC(C)C)c(=O)c4c3c3ccccc3n4C)CC2)c1 | 6.11% |
| COc1ccc(Br)cc1C1C(C(=O)Nc2ccc(C)cc2C)=C(C)Nc2ncnn21 (stereo not given) | -12.6% |
| Cc1ccc(C)c(CSc2nc(-c3ccccc3F)nc3c2Cc2c(CO)cnc(C)c2O3)c1 | -3.52% |
| COc1ccc(C)cc1NC(=O)c1noc2c1CSc1ccccc1-2 | -5.89% |
| COc1ccc(C2C(C(=O)Nc3ccccc3)=C(C)Nc3c(C(=O)Nc4ccccc4)cnn32)cc1 (stereo not given) | 11.1% |
| CC(C)C(=O)Nc1nnc2n1CCS2 | -19.7% |
| CCC(Cn1nnc2ccccc2c1=O)NC(=O)Nc1cc(C)cc(C)c1 (stereo not given) | -0.293% |
| Cc1cc2c(n1-c1ccc(C(=O)NCCc3ccc(Cl)cc3)cc1)CCCC2 | -5.75% |
| Cc1nc(N2CCCC2)c2c(C(=O)N3CCN(c4ccccc4)CC3)c(C)oc2n1 | 6.89% |

| SMILES | inhibition |
| --- | --- |
| CC(=O)N1CCCc2cc(S(=O)(=O)N3CCCC(C(=O)N4CCN(c5cccc(Cl)c5)CC4)C3)ccc21 (stereo not given) | 4% |
| CCOc1cc2sc(N3CCC(C(=O)Nc4ccc(CC)cc4)CC3)nc2cc1Br | -6.83% |
| CCc1ccc(C(=O)c2cn(CC(=O)Nc3ccc(Cl)cc3)c3cc4c(cc3c2=O)OCO4)cc1 | 5.94% |
| CCOc1ccc(CNC(=O)c2cccc(NC(=O)N3CCSc4ncccc43)c2)cc1OC | 8.02% |
| Cc1ccc(S(=O)(=O)n2nc(C)c(S(=O)(=O)N3CCCCCC3)c2C)cc1 | -21.9% |
| Cc1ccc(C)c(CSc2nnc3[nH]c(=O)cc(C)n23)c1 | 7.07% |
| CC(C)c1nn2c(=O)cc(COC(=O)c3cccc(NC(=O)COc4ccc(F)cc4)c3)nc2s1 | 11.8% |
| CCc1ccc(C(=O)c2cn(CC(=O)Nc3ccc4c(c3)OCO4)c3ccc(CC)cc3c2=O)cc1 | -11.2% |
| Cc1cc2c(cc1S(=O)(=O)CCC(=O)N1CCC(C)CC1)OCC(=O)N2 | 13.6% |
| Cc1ccc(NC(=O)C(Cc2c[nH]c3ccccc23)NC(=O)OC(C)(C)C)c(C)c1 (stereo not given) | -22.8% |
| Cc1ccc(NC(=O)CSc2nnc3scc(-c4ccc(Cl)cc4)n23)cc1 | 26.9% |
| COc1cccc(CNC(=O)C2CCC(CNS(=O)(=O)c3ccc4c(c3)CCCC(=O)N4)CC2)c1 (stereo not given) | -4.8% |
| CCN(CC)C(=O)Cn1c(=O)cc(C)c2c(C)nn(-c3cccc(Cl)c3C)c21 | 10.6% |
| CCOC(=O)C1=C(CN2CCN(c3ccc(OC)cc3)CC2)NC(=O)NC1c1ccc(OC)cc1 (stereo not given) | -1.1% |
| COc1cccc(OCC(O)CN2CCN(c3ncccn3)CC2)c1 (stereo not given) | active: 69.1% |
| COc1ccc(NC(=O)Cn2cc(S(=O)(=O)N3CCN(c4ccccc4F)CC3)c3ccccc3c2=O)cc1Cl | 10.6% |
| CCn1c(SCC(=O)c2[nH]c(C)c(C(C)=O)c2C)nnc1-c1cccs1 | active: 98.8% |
| CCN(CC)CCCNc1oc(/C=C/c2ccc(OC)c(OC)c2)nc1C#N | 10.8% |
| CCOc1ccc(-c2cc(C(=O)N3CCN(c4cc(Cl)ccc4C)CC3)c3ccccc3n2)cc1 | -25% |
| CNc1c(NC(=O)c2ccc(OC)c(OC)c2)c(=O)oc2ccccc12 | 0.701% |
| Cc1cc(C)c(Nc2nc3ccccc3n3c(C)nnc23)c(C)c1 | -11.4% |
| Brc1cccc(OCCN2CCCCC2)c1 | active: 47.5% |
| Cc1ccc(NC(=O)C(=O)NCC(c2cccnc2)N2CCN(Cc3ccccc3)CC2)cc1C (stereo not given) | -1.21% |
| COc1ccccc1OCCn1c(NC(=O)c2ccccc2Cl)nc2ccccc21 | -18.8% |

| SMILES | inhibition |
| --- | --- |
| Cc1cc(Nc2ccccc2F)n2nc(-c3ccccc3)nc2n1 | -13.1% |
| CCOC(=O)C1CCN(c2cc3c(cc2NC(=O)c2ccc(Cl)cc2)n(C)c(=O)n3C)CC1 | 8.11% |
| CCOc1ccc(Nc2oc(-c3ccc(COc4ccc(OC)cc4)o3)nc2C#N)cc1 | 0.212% |
| COC(=O)c1ccc(Cl)cc1NC(=O)N1CC2CCCN2c2ccccc21 (stereo not given) | -6.52% |
| COc1ccc(S(=O)(=O)NCc2ccc3c(c2)CCN3C(=O)c2ccccc2)cc1OC | 5.16% |
| Cn1c(=O)cc(SCC(=O)NCCCN2CCN(c3ccc(F)cc3)CC2)c2ccccc21 | active: 90.6% |
| COc1ccc(NC(=O)CN2C(=O)CCn3nc(-c4cccn4C)cc32)cc1 | -3.65% |
| COc1cccc(CNC(=O)c2cnc3c(-c4ccc(F)cc4)c(C)nn3c2C)c1 | 10.3% |
| CC(=O)Nc1ccc(NC(=O)c2nc(S(=O)(=O)Cc3ccc(F)cc3)ncc2Cl)cc1 | -3.87% |
| CCc1ccc(C2C(C(=O)Nc3ccccc3OC)=C(C)Nc3c(C(=O)Nc4ccc(C)cc4)cnn32)cc1 (stereo not given) | -4.83% |
| CCN(C(=O)c1cn(-c2cccc(OC)c2)c(=O)c2ccccc12)c1ccccc1C | 10.6% |
| Cc1noc(C(=O)Nc2ccc3c(c2)OCO3)c1Cl | active: 54.4% |
| OC(COCc1ccccc1)CN1CCN(c2ccccc2F)CC1 (stereo not given) | active: 111% |
| COc1ccc(C(=O)Nc2ccccc2-c2nc3ccccc3s2)cc1OC | -0.121% |
| Cc1ccc(C)c(NC(=O)CSc2nccn2-c2cccc(C)c2C)c1 | -18.4% |
| Cc1nn(-c2nc(-c3ccccc3)cc(C(F)(F)F)n2)c(C)c1Cl | 0.486% |
| CCc1nn(C(CC)C(=O)NCc2ccc(OC)c(OC)c2)c(=O)c2cc3oc(C)cc3n12 (stereo not given) | 16.2% |
| COc1ccccc1N1CCN(c2ncnc3c2c(-c2ccccc2)cn3-c2cccc(Cl)c2)CC1 | 9.82% |
| Cc1ccc(OCCSc2nc(-c3ccccc3C)nc3cc(=O)[nH]n23)cc1Cl | -0.632% |
| COc1cccc(OC)c1C(=O)NCCc1sc(-c2cccc(F)c2)nc1C | -11.7% |
| COc1ccc(S(=O)(=O)N2CCC(Oc3ccc(-n4cnnn4)cc3)CC2)cc1 | -5.55% |
| CCCCNC(=O)c1cccc(NC(=O)c2nsc3ccccc23)c1 | 3.79% |
| Cc1cc(NS(=O)(=O)c2ccc(NC(=O)c3ccc(Cl)cc3[N+](=O)[O-])cc2)no1 | active: 40.7% |
| CCOc1ccc2c(c1)c(=O)c(C(=O)c1ccc3c(c1)OCO3)cn2Cc1ccc(F)cc1 | -10% |

| SMILES | inhibition |
| --- | --- |
| O=C(O)c1ccc(CSc2nc3ccccc3c(=O)n2-c2ccccc2)cc1 | active: 48.3% |
| COc1cc(/C=C(\C#N)c2nc3ccc(C)cc3[nH]2)ccc1OCc1ccc(C)cc1 | 6.6% |
| CCc1ccc(OCCSc2nc3ccccc3n2CC(=O)N2CCCCC2)cc1 | 12.8% |
| O=C(c1ccc(F)cc1)N1CCc2c([nH]c3ccccc23)C1c1ccc(Cl)cc1 (stereo not given) | 8.94% |
| CCOc1ccc(NCc2cccn2-c2nnc(N3CCC(C(=O)NCc4ccccc4Cl)CC3)s2)cc1 | -10.3% |
| CC(C)(C)OC(=O)N1CCC(c2c(C(=O)NCc3cccs3)cnn2-c2cccc(F)c2)CC1 | 5.18% |
| COc1ccc(Cl)cc1NC(=O)N1CCN(S(=O)(=O)c2ccc3c(ccn3C)c2)CC1 | 6.71% |
| COc1ccc(OC)c(NC(=O)c2oc(=O)c3ccccc3c2-c2ccccc2)c1 | 11.3% |
| COc1ccc(CC(=O)N2CCc3cc(OC)c(OC)cc3C2COc2ccc(F)cc2)cc1 (stereo not given) | 22% |
| COc1cc2c(cc1OC)C(c1cccc(Cl)c1)CC(=O)N2 (stereo not given) | -15.8% |
| Cn1nc(-c2ccccc2F)c2cc(C(=O)NCc3ccccc3Cl)sc21 | 6.25% |
| COc1ccc(N2CCN(S(=O)(=O)c3ccc(F)c(C(=O)Nc4ccccc4Cl)c3)CC2)cc1 | 6.91% |
| CCCSCCCNC(=O)c1ccc(C)c(NC(=O)c2nsc3ccccc23)c1 | -15.6% |
| COc1cccc(Cn2nc(SC)c(S(=O)(=O)c3ccccc3)c2N(C(C)=O)C(C)=O)c1 | 8.58% |
| CCS(=O)(=O)N1CCCc2cc(C(=O)Nc3cccc(C(C)=O)c3)ccc21 | 10.5% |
| CCC(=O)N1CCc2cc(Br)cc(S(=O)(=O)CCC(=O)Nc3cccc(Cl)c3)c21 | -7.42% |
| CCCn1c2ccc(F)cc2c2nnc(SCCN3CCCCC3)nc21 | 26.7% |
| CCOc1ccc(Nc2ncnc3c2c(-c2ccccc2)cn3-c2cccc(C)c2)cc1 | 1.14% |
| Clc1ccc(-c2nnn3c2nc(NC2CCCCC2)c2ccccc23)cc1 | 2.53% |
| CCOc1ccc(C(=O)N(Cc2ccc(C(C)C)cc2)Cc2ccco2)cc1 | -5.46% |
| COc1ccc(-c2noc(CCC(=O)N(C)c3cc(Cl)ccc3OC)n2)cc1 | -7.96% |
| CC(C)CCOc1ccc(C(=O)NCC2OCCc3ccccc32)cc1 (stereo not given) | 0.722% |
| COc1ccc(NS(=O)(=O)c2ccc(N3CCCCS3(=O)=O)cc2)cc1Cl | -0.0227% |
